Reference: PubChem BioAssay (NCATS)
Inconclusive means that the source gave no clear call. Such entries were picked first, then a sample of the others. A call without a number means that no potency is given here. For part of these data: A potency beside an inconclusive call is a rough fit, not a confirmed value. Calls of active or inactive are those of the source. Unless noted, the call rests on the fitted dose curve; in most records, active means well fitted curve in the direction sought with a large enough effect; inconclusive means small, poorly fitted or top-dose-only effect, or another doubt; inactive means no such curve, though single readings can be large; an effect the other way counts as inactive or inconclusive. Peptide text beside a SMILES is read from it.

Legend:
[1] = P-glycoprotein substrates identified in KB-8-5-11 adenocarcinoma cell line, qHTS therapeutic library screen (AID 1346987); conditions: activity change, negative = cytotoxicity: at 44.5 µM (top of the series); further: nearly all actives have a fitted effect of over 65% in size; further: potency means the concentration at half of the fitted maximal effect
Outline: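 Compounds are pinned in dose-response onto KB-8-5-11 cells (500 cells/well, colchicine-free medium) and left 72 h at 37 degree C. CellTiter-Glo luminescence then yields AC50 values.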

[2] = target: Cytochrome P450 2D6 (Homo sapiens) (UniProt P10635); test: Cytochrome P450 family 2 subfamily D member 6 (CYP2D6) small molecule antagonists: luciferase biochemical (cell-free) qHTS assay (AID 1645840; active means well fitted curve in the direction sought with a large enough effect in the repeat runs; inconclusive means weak or mixed curves; inactive means no such curve, though single readings can be large; an effect the other way counts as inactive or inconclusive; further: potency means the concentration at half of the fitted maximal effect; nearly all actives have a fitted effect of over 55% in size)
Outline: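 P450-Glo CYP2D6 system: proluciferin substrate converted by enzyme to luciferin, read by luminescence proportional to activity. Enzyme-substrate mix with compound 10 min at room temperature, then NADPH regeneration 1 h before detection reagent.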

[3] = target: Cytochrome P450 2C9 (Homo sapiens) (UniProt P11712); test: Cytochrome P450 family 2 subfamily C member 9 (CYP2C9) small molecule antagonists: luciferase biochemical (cell-free) qHTS assay (AID 1645842; active means well fitted curve in the direction sought with a large enough effect in the repeat runs; inconclusive means weak or mixed curves; inactive means no such curve, though single readings can be large; an effect the other way counts as inactive or inconclusive; further: potency means the concentration at half of the fitted maximal effect; nearly all actives have a fitted effect of over 55% in size)
Outline: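 P450-Glo CYP2C9 system: proluciferin substrate with enzyme in mix containing 0.4% BSA, 10 min at room temperature, then NADPH regeneration solution added and incubated 1 h at 37C. Detection reagent stopped reaction; luminescence read after 20 min as RLU.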

[4] = Primary qHTS for inhibitors of nuclear receptor binding SET domain protein 2 (NSD2) in an isogenic RCH-ACV NSD2 p.E1099K mutant (9B) (AID 1645876); conditions: activity change, negative = viability loss: at 44.9 µM (top of the series) unless noted; further: potency means the concentration at half of the fitted maximal effect; nearly all actives have a fitted effect of over 70% in size
[5] = Primary qHTS for inhibitors of nuclear receptor binding SET domain protein 2 (NSD2) in an RCH-ACV wild type WT cells (2C) (AID 1645877); conditions: activity change, negative = cell killing: at 44.9 µM (top of the series) unless noted; further: nearly all actives have a fitted effect of over 70% in size; further: potency means the concentration at half of the fitted maximal effect
[6] = tested on: OV90; test: Primary qHTS to identify gynecologic anti-cancer compounds using libraries of approved drugs and bioactive compounds (AID 1345084); conditions: Gynecologic cancer cell panel viability, ATPlite luminescence, 48 h; series mostly up to 57.5 µM; further: nearly all actives have a fitted effect of over 55% in size; further: potency means the concentration at half of the fitted maximal effect
Outline: (§1)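 Five-point cytotoxicity, 48 h drug exposure at 37 C, 5% CO2, on cells seeded 16 h beforehand. ATP content read by ATPlite luminescence.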

[7] = tested on: SKOV3; test: as above; conditions: Gynecologic cancer cell panel viability, ATPlite luminescence, 48 h; series mostly up to 57.5 µM
Outline: as §1

[8] = qHTS of pediatric cancer cell lines to identify multiple opportunities for drug repurposing: Primary screen for A673 cells (AID 1347092); conditions: A673 Ewing sarcoma viability, CellTiter-Glo ATP luminescence, 48 h; activity change, negative = cytotoxic: at 46 µM (top of the series); further: nearly all actives have a fitted effect of over 45% in size
Outline: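 Titration-based qHTS on A673 cells: MIPE compounds spanned 11 points (0.78 nM to 46 µM final), NPC compounds 8 points (0.59 nM to 46 µM final). Viability after 48 h was measured by ATP luminescence.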

[9] = qHTS of pediatric cancer cell lines to identify multiple opportunities for drug repurposing: Primary screen for NB1643 cells (AID 1347099); conditions: NB1643 neuroblastoma viability, CellTiter-Glo luminescence, 48 h; activity change, negative = cytotoxic: at 46 µM (top of the series); further: nearly all actives have a fitted effect of over 50% in size
Outline: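 500-1,000 cells/well; 5 h pre-incubation 37 °C/5% CO2; compound pinned; 48 h; CellTiter-Glo, 15 min RT; luminescence. MIPE 11-pt from 0.78 nM, NPC 8-pt from 0.59 nM final. Bortezomib 2.3 µM final as positive control.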

[10] = target: Protein phosphatase 1D (Homo sapiens) (UniProt O15297); test: RapidFire Mass Spectrometry qHTS Assay for Modulators of WT P53-Induced Phosphatase 1 (WIP1) (AID 1347424);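 further: amount of dephosphorylated VEPPL-S-QETFS peptide product formed by WIP1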
Outline: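 Mass-spectrometric measurement of dephosphorylated peptide after a 5 min room-temperature reaction of 10 nM WIP1 with 2 uM phosphopeptide, following 1 h compound preincubation in 30 mM MgCl2 buffer.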

[11] = Primary redox qHTS assay for identification of artifact compounds. (AID 1845223); further: potency means the concentration at half of the fitted maximal effect
Outline: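 Redox-cycling detection via DTT (250 uM final) oxidation coupled to Amplex Red (25 uM)/HRP (250 mU/mL) in HBSS. 15 min preincubation plus 30 min after DTT, room temperature. Ex/Em 525/598 nm; 4-parameter Hill fit against DMSO and 10 uM DA3003.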

[12] = Primary fluorescence-based thiol-reactive (MSTI) qHTS assay for identification of artifact compounds. (AID 1845221);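 further: potency means the concentration at half of the fitted maximal effect; thiol-reactive compounds lower the probe fluorescence signal; nearly all actives have a fitted effect of over 65% in size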
Outline: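 Thiol-reactive compounds detected by quenching of 4 uM MSTI fluorescence (525/598 nm) after 1 h room-temperature dark incubation in PBS pH 7.4, 2% DMSO. qHTS titration; percent inhibition Hill-fitted against Acetyl-MSTI/MSTI controls.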

[13] = tested on: PA-1; test: Primary qHTS to identify gynecologic anti-cancer compounds using libraries of approved drugs and bioactive compounds (AID 1345084); conditions: Gynecologic cancer cell panel viability, ATPlite luminescence, 48 h; series mostly up to 57.5 µM; further: nearly all actives have a fitted effect of over 55% in size; further: potency means the concentration at half of the fitted maximal effect
Outline: as §1

[14] = tested on: JEG-3; test: as above; conditions: Gynecologic cancer cell panel viability, ATPlite luminescence, 48 h; series mostly up to 57.5 µM
Outline: as §1
Tags describe the fitted curve by direction and shape.

UniProt P11712, sequence (P11712 whole entry, looked up): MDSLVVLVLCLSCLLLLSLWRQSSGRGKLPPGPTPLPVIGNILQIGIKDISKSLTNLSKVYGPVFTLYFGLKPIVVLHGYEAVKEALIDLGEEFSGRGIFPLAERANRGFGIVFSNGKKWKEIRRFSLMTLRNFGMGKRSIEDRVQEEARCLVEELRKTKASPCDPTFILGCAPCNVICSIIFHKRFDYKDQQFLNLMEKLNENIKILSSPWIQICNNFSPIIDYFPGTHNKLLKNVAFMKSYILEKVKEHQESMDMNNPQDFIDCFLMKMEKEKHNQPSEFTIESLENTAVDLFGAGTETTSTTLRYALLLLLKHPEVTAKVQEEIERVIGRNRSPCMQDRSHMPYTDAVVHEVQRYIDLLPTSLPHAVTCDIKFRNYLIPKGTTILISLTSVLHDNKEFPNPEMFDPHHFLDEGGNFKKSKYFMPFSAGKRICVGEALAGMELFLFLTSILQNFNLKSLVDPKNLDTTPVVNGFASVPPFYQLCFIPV
UniProt P10635, sequence (P10635 whole entry, looked up): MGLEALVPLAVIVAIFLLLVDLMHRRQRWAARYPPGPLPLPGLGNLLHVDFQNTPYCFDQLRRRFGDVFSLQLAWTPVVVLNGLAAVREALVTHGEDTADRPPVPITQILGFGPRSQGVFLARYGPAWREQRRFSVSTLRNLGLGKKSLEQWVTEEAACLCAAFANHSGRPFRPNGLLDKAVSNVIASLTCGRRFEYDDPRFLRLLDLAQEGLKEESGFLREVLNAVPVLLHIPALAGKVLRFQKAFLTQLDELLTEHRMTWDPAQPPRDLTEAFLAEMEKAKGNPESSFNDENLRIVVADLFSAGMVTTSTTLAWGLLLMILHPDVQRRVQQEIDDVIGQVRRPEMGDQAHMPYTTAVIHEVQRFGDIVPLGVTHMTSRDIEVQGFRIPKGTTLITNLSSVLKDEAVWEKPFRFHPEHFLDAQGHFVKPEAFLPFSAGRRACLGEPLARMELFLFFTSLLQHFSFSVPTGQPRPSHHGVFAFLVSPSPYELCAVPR
UniProt O15297, sequence (O15297 whole entry, looked up): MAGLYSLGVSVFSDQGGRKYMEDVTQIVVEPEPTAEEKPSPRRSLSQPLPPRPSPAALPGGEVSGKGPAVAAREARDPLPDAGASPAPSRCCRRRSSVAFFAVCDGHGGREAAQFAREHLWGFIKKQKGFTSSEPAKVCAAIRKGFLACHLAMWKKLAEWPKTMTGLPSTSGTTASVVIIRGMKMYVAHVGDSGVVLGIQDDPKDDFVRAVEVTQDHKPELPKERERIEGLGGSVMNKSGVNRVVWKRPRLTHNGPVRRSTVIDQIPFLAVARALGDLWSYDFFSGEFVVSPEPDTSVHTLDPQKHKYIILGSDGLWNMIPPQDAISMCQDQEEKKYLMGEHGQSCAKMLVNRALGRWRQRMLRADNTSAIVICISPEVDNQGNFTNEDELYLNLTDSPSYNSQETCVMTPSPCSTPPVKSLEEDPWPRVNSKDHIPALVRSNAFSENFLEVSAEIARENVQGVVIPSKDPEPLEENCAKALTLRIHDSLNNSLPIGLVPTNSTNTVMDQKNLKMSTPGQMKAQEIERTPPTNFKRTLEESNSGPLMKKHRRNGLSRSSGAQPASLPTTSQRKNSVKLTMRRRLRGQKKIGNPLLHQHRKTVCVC

Cc1cc(Nc2nc(NC(C)c3ncc(F)cn3)ncc2Cl)n[nH]1 (centres undefined)
Potency [1]: inconclusive: 32.6 µM [inhibitor, partial curve, poor fit]
Potency [2]: inconclusive: 9.52 µM [inhibitor, partial curve]
Potency [3]: inconclusive: 15.1 µM [inhibitor, partial curve]
Potency [4]: inconclusive: 16.3 µM [inhibitor, partial curve]
Potency [5]: inconclusive: 20.5 µM [inhibitor, partial curve]
Potency [6]: inactive
Potency [7]: inactive

Cc1ccc2ccc(Cl)cc2n1
Potency [8]: inactive
Potency [9]: inactive
Potency [10]: inactive
Potency [6]: inactive
Potency [7]: inconclusive: 6.31 µM [cytotoxic, single point]

COC(=O)C1=CO[C@@H](O[C@@H]2O[C@H](CO)[C@@H](O)[C@H](O)[C@H]2O)[C@@H]2C(C)CC(=O)[C@]12O (some centres undefined)
Potency [1]: inactive
Potency [6]: inactive
Potency [7]: inconclusive: 17.8 µM [rising, single point]

O=C(O)C(Cc1ccccc1)NC(=O)C1CCCN1 (stereo not drawn) (H-Pro-Phe-OH; configuration not given here)
Potency [11]: inconclusive: 37.7 µM [activator, partial curve, poor fit]
Potency [6]: inactive
Potency [7]: inactive

COc1ccc2c(c1)N1C(=O)C[C@@]34C=CC[N@+]5([O-])CC[C@H]2[C@H](CC3)[C@@]145
Potency [5]: inactive
Potency [12]: inconclusive: 5.21 µM [inhibitor, partial curve, poor fit]
Potency [6]: inconclusive: 5.01 µM [rising, partial curve, poor fit]
Potency [13]: inconclusive: 17.8 µM [rising, partial curve, poor fit]

CC1=CC(=O)CC2C1(O)CCC(C)C21CC(c2ccoc2)OC1=O (centres undefined)
Potency [12]: inconclusive: 5.85 µM [inhibitor, partial curve]
Potency [14]: inactive
